Experimental data from publication PMC12040169 (PLOS Biology, 2025).
The list shows a part of the results.

What follows are compounds tested on T1, C. trachomatis L2/434/Bu expressing GFP (CTL2-GFP). Details: total inclusion area; 28.5 h, 10 µM; inhibitor.
T1 construct: L2/434/Bu GFP intracellular growth in HeLa cells
Set-up: species or system HeLa; C. trachomatis total inclusion area by high-content imaging, normalised to DMSO
Procedure, shortened: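 High-content imaging followed the bulk GFP/resorufin measurement: fixed, Hoechst-stained cells were scored for GFP inclusions and host nuclei per well. Total inclusion area and count served as growth proxies, nuclei number as the viability proxy. MIC calculation matched the bulk assay.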
For `O=C(O)CC1COCCN1Cc1ccc(Cn2cccn2)cc1` (stereo not shown) [CBK306827], the “% of control remaining” value was 68.6807.
In the case of `Cc1cc(C)nc(N2CCN(C(=O)CCC(=O)NCc3cccc(C(F)(F)F)c3)CC2)n1` [CBK022261], the “% of control remaining” value is reported as 82.1417.
For `CC(=O)N1c2ccc(-c3cc4ccccn4c3)cc2CC1C` (stereo not shown) [CBK285254], the “% of control remaining” value was 109.866.
With `CCC(C(=O)N1CCC(C(=O)c2cccnc2)CC1)c1ccccc1` (stereo not shown) [CBK283525] the “% of control remaining” value was 99.4174.
`Oc1cc(C(F)(F)F)nc(NCc2ccc3ccccc3c2)n1` [CBK003459] was tested, and the “% of control remaining” value was 73.8749.
In the case of `CC(O)CNCCCOc1ccccc1-c1ccccc1` (stereo not shown) [CBK268633G], the “% of control remaining” value is reported as 135.423.
`CC(C)(C)c1nc(-c2ccccc2)c2ccccn12` [CBK149256] was tested, and the “% of control remaining” value was 76.8943.
With `O=C(c1ccc2[nH]c(=O)[nH]c2c1)N1CCC(Cn2cncn2)(C2CCCCC2)CC1` [CBK136824] the “% of control remaining” value was 97.2375.
With `COc1cccc(-c2nnnn2[C@H]2CO[C@H]3[C@@H]2OC[C@@H]3NC(=O)c2ccc(C)cc2)c1` [CBK289512] the “% of control remaining” value was 89.5538.
In the case of `O=c1[nH]c(SCc2n[nH]c(=S)n2-c2ccccc2)nc2sc3c(c12)CCCC3` [CBK300538], the “% of control remaining” value is reported as 119.231.
`COc1cccc(-c2nc(-c3ccc4[nH]c(=O)[nH]c4c3)cs2)c1OC` [CBK298271] was tested, and the “% of control remaining” value was 92.7241.
For `Cc1cc(OCC(=O)N2CCN(c3ccccc3F)CC2)no1` [CBK305898], the “% of control remaining” value was 66.1246.
In the case of `N#CC1CCCc2c1[nH]c1ccc(Br)cc21` (stereo not shown) [CBK026475], the “% of control remaining” value is reported as 34.8929.
`c1ccc(Cn2cc(-c3cnc(N4CCOCC4)c4nccn34)cn2)cc1` [CBK091289] was tested, and the “% of control remaining” value was 109.244.
In the case of `C=CCn1ncc(CN2CCC3(O)CCCCC3C2)c1C` (stereo not shown) [CBK283029], the “% of control remaining” value is reported as 103.502.
`Cc1ccc2c(c1)C1(CC(=O)N(C)C1=O)C(=O)N2CCOc1cccc2c1OCCO2` (stereo not shown) [CBK075529] was tested, and the “% of control remaining” value was 96.2191.
`CN1CCN(c2ccc(-c3cncc(NCCc4ccccn4)n3)cn2)CC1` [CBK037135] was tested, and the “% of control remaining” value was 97.2766.
With `COc1ccccc1NC(=O)N1C[C@@H]2C[C@H](C1)c1c(-c3cccc(C#N)c3)ccc(=O)n1C2` [CBK289197] the “% of control remaining” value was 93.6807.
In the case of `COc1cccc(CCN(Cc2ccc(S(=O)(=O)N3CCOC3=O)cc2)Cc2cccc(OCCO)c2)c1` [CBK014806], the “% of control remaining” value is reported as 129.854.
`C/C(=N\NC(N)=S)C(=O)O` [CBK261575] was tested, and the “% of control remaining” value was 64.1996.
In the case of `CC(C)c1ccc(S(=O)(=O)NCCc2ccccc2)cc1` [CBK044426], the “% of control remaining” value is reported as 96.812.
For `O=C(O)c1ccc(N2N=C(c3ccccc3)/C(=C\c3cccc([N+](=O)[O-])c3O)C2=O)cc1` [CBK265615], the “% of control remaining” value was 101.833.
With `COc1ccc(CN2CCCc3c(C)nc(C4CCCN(C(=O)C5CCC5)C4)nc32)cc1` (stereo not shown) [CBK286117] the “% of control remaining” value was 72.535.
With `O=c1ccc(O)nn1CN1CCN(Cc2ccccc2)CC1` [CBK265539] the “% of control remaining” value was 97.5913.
For `NC(=O)C1(N2CCCCC2)CCN(C(=S)Nc2ccc(F)c(Cl)c2)CC1` [CBK267165], the “% of control remaining” value was 118.447.
For `CC(C)CN1CCC(NC(=O)c2csc(-c3cnn(C)c3)n2)CC1` [CBK305790], the “% of control remaining” value was 34.1656.
In the case of `COc1cccc(-c2nn(CCC#N)cc2C(=O)N2CCCCC2)c1` [CBK305942], the “% of control remaining” value is reported as 41.4015.
With `OCC1CCCN1c1nccnc1-c1cccs1` (stereo not shown) [CBK089060] the “% of control remaining” value was 87.2587.
In the case of `O=C(Oc1ccc(/C=N/c2ccc(-c3nc4ccccc4s3)c(O)c2)cc1)c1ccc(Cl)cc1` [CBK261234], the “% of control remaining” value is reported as 104.348.
For `CC(C)(C)c1nnc2sc(-c3cccnc3)nn12` [CBK287289], the “% of control remaining” value was 71.5591.
With `Cc1c(C)c2c(O)n(-c3ccccc3)nc2[nH]c1=O` [CBK287891] the “% of control remaining” value was 92.147.
For `Cc1cc(C)cc(N(C(C)C(=O)N2CCN(Cc3ccc4c(c3)OCO4)CC2)S(C)(=O)=O)c1` (stereo not shown) [CBK269060], the “% of control remaining” value was 109.153.
`COc1ccc(Oc2cncc(OC3CCN(CC4CCCCC4)C3)n2)cc1OC` (stereo not shown) [CBK084413] was tested, and the “% of control remaining” value was 83.5683.
With `CCOc1ccc(S(=O)(=O)N2CCN(Cc3cc(F)c(F)c(F)c3)CC2)c2cccnc12` [CBK062795] the “% of control remaining” value was 64.2943.
In the case of `CCCc1onc(S(=O)(=O)c2ccc(C)cc2)c1NC` [CBK020322], the “% of control remaining” value is reported as 105.527.
`O=C(c1cc2c(s1)CCC2)N1CCn2c(nnc2C2CC2)C1` [CBK283770] was tested, and the “% of control remaining” value was 86.0052.
In the case of `CCc1nnc(SCC(=O)Nc2cc(OC)ccc2OC)[nH]1` [CBK270167], the “% of control remaining” value is reported as 93.8603.
For `NS(=O)(=O)c1ccc(Cn2c(=O)[nH]c3ncc(-c4ccco4)nc32)cc1` [CBK064948], the “% of control remaining” value was 105.865.
In the case of `c1cncc(-c2noc(-c3cc(C4CC4)[nH]n3)n2)c1` [CBK287973], the “% of control remaining” value is reported as 91.7419.
In the case of `Cc1noc(C)c1C(=O)N1CCCC(c2nc(C)n3ccsc23)C1` (stereo not shown) [CBK285211], the “% of control remaining” value is reported as 71.7195.
